Values joined by “and” are separate entries in the source; they are usually repeats but may differ in a detail not shown here. Equal values may be shown once. The whole screen tested about 48,000 compounds, of which about 1,200 (2.5%) were called active. Inconclusive results, whose numbers are uncertain, are shown with a selection of clear calls.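 Rule for the calls: active = activation of at least 60% and not above a set upper limit (about 1 call in 100 departs from these limits); inconclusive = activation of 40% to 60%, or above that upper limit; inactive = activation under 40%.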 The source holds several records for some structures; these can differ, active in one and inactive in another.
Each compound was assayed against Probable G-protein coupled receptor 32 (Homo sapiens) (UniProt O75388) (assay: qHTS for Agonists of Human Resolvin D1 Receptor DRV1). Conditions: CHO-K1 GPR32 beta-arrestin PathHunter luminescence, 90 min; at 76.9 µM; stronger effect = higher value; zero percent set by DMSO-only wells.
Outline: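 Step 1: seed CHO-K1 GPR32 beta-arrestin cells, 2,500/well, overnight at 37 °C. Step 2: add compounds, 90 min at 37 °C. Step 3: detection reagent, 1 h ambient, then luminescence.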
Note: 0% is about no effect.

UniProt O75388, sequence (O75388 whole entry, looked up): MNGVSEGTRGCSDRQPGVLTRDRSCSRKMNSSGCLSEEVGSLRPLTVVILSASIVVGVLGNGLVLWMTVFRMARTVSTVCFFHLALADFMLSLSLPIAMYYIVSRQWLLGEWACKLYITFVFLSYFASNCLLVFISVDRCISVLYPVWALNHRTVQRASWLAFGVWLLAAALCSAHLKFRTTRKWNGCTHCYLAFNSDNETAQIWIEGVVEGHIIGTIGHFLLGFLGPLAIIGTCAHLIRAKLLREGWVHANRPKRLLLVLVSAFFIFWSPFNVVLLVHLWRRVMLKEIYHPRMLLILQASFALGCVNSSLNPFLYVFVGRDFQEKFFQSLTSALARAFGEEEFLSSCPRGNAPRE

activation, inactive:
COc1cc(C(=O)Nc2ccccc2OCc2cc(=O)n3cc(C)sc3n2)cc(OC)c1OC -3.3%, CCOC(=O)c1ccc(NC(=O)CSc2nnc(CNC(=O)c3ccc(OC)cc3)n2CC)cc1 -0.0531%, CCOc1ccc(CNC(=O)C2CCCN(c3nn4cc(-c5ccc(F)cc5)nc4s3)C2)cc1 (stereo not drawn) 6.12%, COc1ccc(C)cc1S(=O)(=O)Nc1cccc(-c2ccc(N3CCC(C)CC3)nn2)c1 5.91%, Cc1cccc2sc(N(Cc3cccnc3)C(=O)CCS(=O)(=O)c3ccccc3)nc12 -23.4%, CC(C)CC(=O)Nc1nnc(S(=O)(=O)N(C)c2ccc(Cl)cc2)s1 -5.88%, O=C(Nc1ccc(Br)cc1F)c1ccc2nc(CCc3ccccc3)oc2c1 11.2%, CC(=O)N1c2ccc(S(=O)(=O)NCc3ccc(Cl)cc3)cc2CC1C (stereo not drawn) -3.58%, CCN(CC)C(=O)c1sc2c(c1C)c(=O)n(-c1ccc(OC)cc1OC)c(=O)n2Cc1cc(C)ccc1C -14.3%, COc1ccc(N(Cc2cccs2)C(=O)COc2ccc([N+](=O)[O-])cc2)cc1 -25.6%, Cc1ccc(C(C)C)c(OCC(=O)Nc2cccc(NC(=O)c3ccco3)c2)c1 17.8%, COc1ccc(C2Nc3ccccc3-c3nnc(SC)nc3O2)cc1C (stereo not drawn) -0.152%, Cc1cc2nc(-c3cccc(NC(=O)COc4ccc(Cl)c(C)c4)c3)oc2cc1C 1.68%, CCn1cc2nc(SCc3cccc(C(F)(F)F)c3)n(CCc3ccccc3)c(=O)c2n1 -21.9%, CCOC(=O)c1ccccc1NC(=O)c1ccc2c(Cl)c3c(nc2c1)CCC3 -6.59%, COc1ccc(Cl)cc1NC(=O)CSc1nnc2[nH]c(=O)cc(C)n12 21.1%, COc1ccc(S(=O)(=O)Nc2cccc(-c3ccc(N4CCCCCC4)nn3)c2)cc1F -2.42%, N[C@@H](Cc1cc(I)c(O)c(I)c1)C(=O)O -11.7%, CCN(CC)c1ccc(C(=O)Nc2ccc3nc(N(CC)CC)cc(C)c3c2)cc1 9.06%, CCOc1ccc(NC(=O)N(Cc2ccc(CC)cc2)Cc2cn[nH]c2-c2ccc(OC)cc2)cc1 -21.7%, CC1CC(=O)NN=C1c1ccc(NCC(C)(C)NCC(O)COc2cc(Cl)ccc2C#N)cc1 (stereo not drawn) 43%, COC(=O)c1c(SCC(=O)Nc2cc(F)ccc2F)[nH]c2ccc(C)cc2c1=O -19.7%

activation, active:
O=C(NCCCN1CCN(c2ccc(F)cc2)CC1)c1cc2c(s1)-c1ccccc1OC2 80.4%, COc1ccc(N2CCN(CC(O)COc3ccc(C)cc3C)CC2)cc1 (stereo not drawn) 66.6%, Clc1cccc(-n2ncc3c(NCCCN4CCOCC4)ncnc32)c1 84.6%, CCc1nn(CCCN2CCN(c3cccc(Cl)c3)CC2)c(=O)n1CCOc1ccccc1 89.4%, COc1ccc(Cl)cc1N(C)C(=O)C(=O)Nc1ccc2nc3n(c(=O)c2c1)CCCCC3 80.4%, Cc1nn(-c2ccc(F)cc2)c(-n2cccc2)c1C(=O)NCCCN1CCN(c2ccccc2F)CC1 110%, CCn1c(CN2CCCCC2)nc2cc(NC(=O)c3ccc([N+](=O)[O-])cc3)ccc21 70.5%, Cc1ccc(Cl)cc1-n1ncc2c(N3CCC(C)CC3)ncnc21 61.7%, O=C(Nc1nnc(S(=O)(=O)N2CCCCCC2)s1)c1cccc(Br)c1 115%, COc1cc(CNCCSc2nnnn2C)ccc1OCc1ccccc1C 73.5%, CC(C)(C)c1ccc(C(=O)Nc2ccc(OCc3cc(=O)n4ccsc4n3)cc2)cc1 86.8%

activation, inconclusive:
CCOC(=O)c1noc2ncn(CC(=O)O)c(=O)c12 53.5%, CC(=O)Nc1ccc(NC(=O)c2ccc(COc3ccc(Cl)cc3Cl)o2)cc1 53.2%, CC(C)C(=O)Nc1cccc(C(=O)Nc2nnc(C(F)(F)F)s2)c1 161%, CCn1c(=O)c2sccc2n2c(CCC(=O)Nc3ccc(C(C)C)cc3)nnc12 169%, CC1(COc2ccc(CC3SC(=O)NC3=O)cc2)CCCCC1 (stereo not drawn) 170%, Cc1ccc(C2CC(=O)n3nc(-c4cccc(C)c4)nc3S2)cc1 (stereo not drawn) 59.6%, COc1ccccc1N1CCN(C(=O)c2cc3c(-c4ccccc4F)nn(C)c3s2)CC1 50.3%, CCc1ccc2oc(-c3ccc(NC(=O)c4cccc(Cl)c4Cl)cc3)nc2c1 142%, Cc1ccccc1C(=O)Nc1cccc(-c2cn3cccnc3n2)c1 58.6%, Cc1cc(NC(=O)C2CCC(CNS(=O)(=O)c3ccc(Br)s3)CC2)ccc1Br (stereo not drawn) 152%, Cc1cccc(-c2nc(SCc3cc(=O)c4cccc(F)c4[nH]3)n[nH]2)c1 137%, CCC(=O)N1c2ccccc2CC1C(=O)NCCN1CCN(c2cccc(Cl)c2)CC1 (stereo not drawn) 56.6%, Cc1ccc(NC(=O)C2CCN(S(=O)(=O)c3cccs3)CC2)cc1 155%, CC(=O)c1ccc(NC(=O)CCc2nc(-c3ccc(C)cc3)no2)cc1 51%, CC(=O)c1cccc(NC(=O)c2cc3c(s2)-c2c(C)cccc2OC3)c1 161%, O=C1Nc2ccc(Cl)cc2[C@@](C#CC2CC2)(C(F)(F)F)O1 140%, Cc1ccc(CN(C(=O)COc2ccc(Br)cc2)c2ccccn2)o1 53.3%, CCCN(CCC)CC(O)Cn1cc(/C=C/C(=O)c2ccc(OCC)cc2)c2ccccc21 (stereo not drawn) 59.7%, O=C(O)c1ccccc1Nc1cccc(C(F)(F)F)c1 278%, O=C(Nc1ccccc1C(F)(F)F)N1CCN(c2ccc3nnc(-c4ccc(F)cc4)n3n2)CC1 194%, CCc1ccc(S(=O)(=O)c2nnn(-c3cccc(C)c3)c2N)cc1 54.4%, Cc1cc(C)cc(OCC(=O)Nc2ccc(-c3nc4ccccc4o3)cc2)c1 181%, CC(C)(C)CC(C)(C)c1ccc(OCCOCC[N+](C)(C)Cc2ccccc2)cc1 58.3%, COc1ccc(Cl)cc1C(=O)Nc1ccc(-c2nnc3n2CCCCC3)cc1 50%, COc1ccccc1NC(=O)c1ccccc1NC(=O)c1ccccc1 219%, COc1ccccc1CCNC(=O)CCc1c(C)c2cc3c(C)coc3cc2oc1=O 51.3%, COc1cccc(NC(=O)C2CC(=O)N(c3ccc(Br)cc3)C2)c1 (stereo not drawn) 57.8%, Cc1nc2ccccc2c(=O)n1-c1ccc(NC(=O)c2ccc([N+](=O)[O-])cc2)cc1 51%, COC(=O)CS(=O)(=O)c1nc2ccccc2nc1N1CCCCC1 53.6%, CCOCCn1ccc2c(OCC(=O)Nc3ccc(OC(F)(F)F)cc3)cccc2c1=O 239%, CCC(=O)N1CCCc2cc(S(=O)(=O)Nc3ccc(C)c(C)c3)ccc21 53.2%, CC(C)(C)c1nnc(NS(=O)(=O)c2ccccc2)s1 59.3%, CCOC(=O)C1CCN(C(c2ccc(F)cc2)c2sc3nc(-c4ccco4)nn3c2O)CC1 (stereo not drawn) 51.8%, COc1cccc2sc(N3CCN(C(=O)CCS(=O)(=O)c4ccc(F)cc4)CC3)nc12 50%, CCc1ccc(C2NC(=O)c3[nH]nc(-c4cccc(OC)c4)c32)cc1 (stereo not drawn) 161%, O=C(Cn1ncc2c(Cl)cccc21)NCc1cccc(Br)c1 51%, O=C(NCCc1csc(-c2cccnc2)n1)c1ccc(F)c(F)c1 50.3%, CCOC(=O)c1ccc(N2C(=O)c3n[nH]c(-c4ccco4)c3C2c2ccc(F)cc2)cc1 (stereo not drawn) 51.2%, Nc1nc(N)c(S(=O)(=O)c2ccccc2)c(Nc2ccc(Br)cc2)n1 133%, O=C(NCCc1c[nH]c2ccccc12)Nc1ccccc1C(F)(F)F 406%, CCOC(=O)Oc1ccc(CCNC(=O)[C@H](CCSC)NC(C)=O)cc1OC(=O)OCC 59.6%, COc1ccccc1OCC(=O)Nc1nc2c(s1)CC(C)CC2 (stereo not drawn) 56%, COc1ccc(C(=O)Nc2nc(-c3nnn(-c4ccc(F)cc4F)c3C)ns2)cc1 57.6%, O=C(Nc1ccc(S(=O)(=O)N2CCOCC2)cc1)c1cc(Cl)ccc1NS(=O)(=O)c1ccc(Cl)s1 59.3%, Cc1ccc(-c2n[nH]c3c2C(c2ccccc2Cl)N(c2ccc(C(=O)O)cc2)C3=O)cc1 (stereo not drawn) 126%, Cc1c(CN(C)C(=O)c2cc(-c3ccccc3)nc3ccc(Br)cc23)cnn1C 52.7%, COc1ccc(CCNC(=O)c2ccc(Cn3c(=O)c4ccccc4n(Cc4ccc(F)cc4Cl)c3=O)cc2)cc1OC 50.1%, COc1ccc(C2C=C(c3ccccc3)Nc3nc(NS(=O)(=O)c4ccc(C)cc4)nn32)cc1 (stereo not drawn) 147%, Cc1c(C(=O)OC2CCCCC2)[nH]c2c1C(=O)CC(c1ccccc1)C2 (stereo not drawn) 55.9%

activation, 110% (active) and -22.1% (inactive):
CCOC(=O)C1=C(C)NC(C)=C(C(=O)OC)C1c1cccc(Cl)c1Cl (stereo not drawn)

From PubChem BioAssay AID1346428 (National Center for Advancing Translational Sciences (NCATS), 2018)
